In PubChem BioAssay AID1508624 (National Center for Advancing Translational Sciences (NCATS), 2021):
In all, about 48,000 compounds went through this assay and about 120 (0.25%) were called active. Another 4% or so got no clear call; they are omitted. The call rests on the fitted dose curve; in most records, active means well fitted activation curve with a large enough effect; inconclusive means small, poorly fitted or top-dose-only effect, or another doubt; inactive means no such curve, though single readings can be large or run the other way. Some of the results follow.

Test: Primary qHTS for Identification of Small Molecule Activators of Huntingtin-Antisense Promoter Activity; further: nearly all actives have a fitted effect of over 55% in size
Conditions: HEK293 HTT-AS promoter firefly luciferase reporter, 24 h; series mostly up to 57.5 µM; activity change, positive = activation: at the top concentration
Method in brief: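 Luminescence was read after Dual-Glo reagent and a 10 min room-temperature incubation. Values were normalized to vehicle (0% activity) and zero RLU (-100% activity). Reporter HEK293 cells had been exposed to compounds (up to 57.5 uM final) for 24 h.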

Activity change, positive = activation, inactive:
CCOC(=O)N1CCc2c(sc(NCc3ccc(OC)c(OC)c3OC)c2C(=O)Nc2ccc(OC)cc2OC)C1 -85.8%
CCCC(=O)NCC(c1ccc2c(c1)OCO2)N1CCN(c2ccccc2)CC1 (configuration not stated) -10.4%
CCCCCOc1ccc(/C=C/C(=O)Nc2sc(C(C)=O)c(C)c2C(=O)OCC)cc1OC 2.78%
CCc1ccc(-n2c(=O)c3sc4ccccc4c3n(Cc3cccc(F)c3)c2=O)cc1 -9.05%
Cc1oc(C)c2c(=O)cc(-c3ccc4c(c3)OCO4)cc(OC(=O)c3ccccc3Cl)c12 -14.2%
C=C1CCC2[C@](C)(CO)C(O)CC[C@]2(C)C1CC=C1C(=O)OCC1O (some centres not stated) -4.74% [at 116 µM, percent change from vehicle, -100% = no light]
CC(=O)NO -0.814%
Cc1c(Cl)cccc1NC(=O)Cn1c(=O)nc(-c2ccccc2)c2ccccc21 -40.9%
COc1ccccc1CNC(=O)c1ccc2nc(-c3ccccc3)c(-c3ccccc3)nc2c1 -20%
CCn1cc(C(=O)NCc2ccc(C)cc2)c(=O)c2cc(S(=O)(=O)N3CCCCCC3)ccc21 -12.3%
CCOc1ccc(CNC(=O)c2ccc(NC(=O)N3CCCCc4ccccc43)cc2)cc1OC -6.07%
O=C(CCc1nc2cccnc2n1Cc1cccs1)Nc1cccc(Cl)c1 -25.4%
CCOC(=O)c1cc(-c2ccccc2)n(CCC(=O)Nc2ccc(Cl)c(C(F)(F)F)c2)c1C -51.3%
Cc1nn(C)c2c1c(C(F)(F)F)cc(=O)n2Cc1cccc(Br)c1 -4.37%
CC(C)CNc1nc(Oc2ccc(OCC(N)=O)nn2)nc(N2CCOCC2)n1 -13.1%
C/C=C/C=N/NC(=O)c1ccncc1 -6.15%
Cn1cc(S(=O)(=O)N2CCCCCC2)cc1C(=O)NCc1ccccc1Cl -32.3%
CCOc1ccc(-n2c(-c3ccccc3)c(C)n3c4c(=O)n(C)c(=O)n(C)c4nc23)cc1 22.1%
Cc1cc(-c2nnc3n2CCCCC3)c(C)n1-c1ccccc1 -50.1%
Cc1nc2c(C(=O)NCCc3ccccc3)cnn2c(C)c1Cc1c(F)cccc1Cl 0.162%
Cc1c2cnn(CC(=O)NCc3ccc(F)cc3)c(=O)c2c(C)n1Cc1ccccc1F -15.5%
COc1ccc(Cl)cc1Nc1ncnc2c1c(-c1ccccc1)cn2-c1ccccc1 -11.5%
CC(C)(C)OC(=O)N1CCC(c2c(C(=O)NCc3cccs3)cnn2-c2ccc(F)cc2F)CC1 -32.7%
CCOCCCNC(=O)c1cc2c(-c3ccc(OC)c(OC)c3)nn(C)c2s1 -39.2%
COCCN1CCc2nc(SCC(=O)Nc3ccc(Br)cc3)[nH]c(=O)c2C1 20.2%
Cc1noc(/C=C/N(C)C)c1S(=O)(=O)N1CCCC(C(=O)Nc2ccc(F)cc2F)C1 (configuration not stated) -24.1%
CCN(CC)C(=O)c1sc(NC(=O)C(C)Sc2nc(-c3ccccc3)cc(C(F)(F)F)n2)c(C(=O)OC)c1C (configuration not stated) -25.3%
CCC(=O)Nc1ccc(S(=O)(=O)NCc2ccc3c(c2)CCN3C(=O)c2ccc(C)cc2)cc1 -53.6%
COc1cc(Nc2ncc(F)c(Nc3ccc4c(n3)NC(=O)C(C)(C)O4)n2)cc(OC)c1OC -19.8%
COC(=O)c1ccccc1NC(=O)CCC(=O)N1CCOc2ccccc21 -0.521%
CCOC(=O)c1c(-c2ccccc2)csc1NC(=O)c1nc(S(=O)(=O)CC)ncc1Cl -87.9%
Cc1cccc(-c2c3c(=O)n(C)c(=O)n(C)c3cn2-c2cc(N)c(Cl)cc2Cl)c1 -33.1%
CCN(c1ccccc1)c1nnc(NC(=O)Nc2cccc(Cl)c2C)s1 -9.44%
CC(=O)c1ccc(NC(=O)Nc2nnc(N3CCCC(C)C3)s2)cc1 (configuration not stated) 8.62%
CSc1ccc(-c2nc3ncccn3c2Nc2ccc(C)c(C)c2)cc1 -18.8%
Nc1cc(=O)nc(SCC(=O)Nc2cccc(Cl)c2)n1CCc1ccccc1 -36.3%
Cc1cc(C)c2c(=O)cc(CSc3nnc(COc4ccccc4C)n3C)[nH]c2c1 -11.2%
O=c1cc(-c2ccccc2)c2cc(Cl)c3c(c2o1)CN(Cc1ccccc1)CO3 -21.7%
CN1CCCN=C1COC(=O)C(O)(c1ccccc1)C1CCCCC1 (configuration not stated) -4.31%
CCOC(=O)c1ccc(N2C(=O)c3n[nH]c(-c4cccs4)c3C2c2ccc(C(C)C)cc2)cc1 (configuration not stated) -51.4%
COc1ccc(CC(=O)NCc2ccc3c(c2)CCN3C(=O)c2ccc(Cl)cc2)cc1OC -26.5%
Cc1ccc2c(c1)c1c(c(=O)n(-c3ccccc3C)c(=O)n1CC(=O)NCc1ccccc1)n2C -15.7%
Cc1cc(-c2ccc(C)c(S(=O)(=O)N(C)c3ccc(C)c(C)c3)c2)on1 -37.9%
COc1ccccc1NC(=O)Cn1c(=O)n(Cc2ccco2)c(=O)c2cccnc21 -23.5%
Cc1ccc(OCCCn2c(CCNC(=O)C3CCCCC3)nc3ccccc32)c(C)c1 -4.21%
CCOC(=O)c1c(Oc2ccc(OC)cc2)nnc(-c2ccccc2)c1-c1ccccc1 -19%
COc1ccc(OC)c(NC(=O)CN2C(=O)c3ccccc3Sc3ccc(C(=O)N4CCCC4)cc32)c1 -29.9%
COc1ccc(N(Cc2cccs2)C(=O)Nc2ccccc2)cc1 -16.4%
CCS(=O)(=O)c1ncc(Cl)c(C(=O)N2CCN(c3cccc(Cl)c3)CC2)n1 -94.6%
NC(=O)C1(N2CCCCC2)CCN(C(=O)Nc2ccc(C(F)(F)F)cc2)CC1 -15.5%
Cc1ccc(NCc2ccccc2-c2nnc(-c3ccccc3Cl)o2)c(C)c1 7.52%
Cc1ccc(CNS(=O)(=O)c2cc(C(=O)Nc3cccc(C(F)(F)F)c3)ccc2F)cc1 -18.5%
CC(C)(Oc1ccc(Cl)cc1)C(=O)O -1.21%
COCCCNC(=O)C(=O)NCC(c1ccc2c(c1)OCO2)N1CCOCC1 (configuration not stated) -16%
CCN1C(=O)c2ccccc2S(=O)c2ccc(C(=O)NCc3ccc(F)cc3)cc21 (configuration not stated) -27.3%
COc1ccc(NC(=O)C2=C(C)Nc3nc(CCCO)nn3C2c2ccc(O)cc2)cc1 (configuration not stated) 5.27%
Cc1ccc(C)c(S(=O)(=O)c2nnn3c2nc(N2CCOCC2)c2sccc23)c1 -5.27%
CC(C)N(Cc1ccccc1)c1ncnc2c1nnn2C -14.7%
CCOc1ccc(C(c2c(O)cc(C)n(CCOC)c2=O)N2CCN(c3ccccc3F)CC2)cc1 (configuration not stated) -14.1%
COc1ccccc1-c1nnc(SCCOc2ccccc2C)o1 0.768%
CCc1cccc(CC)c1NS(=O)(=O)c1ccc2c(c1)CCN2C(=O)C1CC1 -26.3%
CC(C)c1ccc(S(=O)(=O)c2cnc(SCC(=O)Nc3cccc(C(F)(F)F)c3)nc2N)cc1 -39.3%
CCOC(=O)c1cc(-c2ccc(OC)c(S(=O)(=O)Nc3ccc(OC)cc3OC)c2)on1 -11.7%
Cc1ccc(CNC(=O)c2nnc(Cc3cccc(F)c3)o2)cc1 -15%
COC(=O)c1sccc1S(=O)(=O)N1CCN(c2ccccc2OC)CC1 -9.93%
O=C(Nc1ccc2nc(SCCOc3ccccc3Cl)sc2c1)c1cccs1 -14.6%
COc1ccc(N2CC(C(=O)Nc3ccc(NC(C)=O)cc3)CC2=O)cc1 (configuration not stated) -5.13%
O=C(NCc1ccc(Cl)cc1)C1CCCN(C(=O)c2cnn(-c3ccc(F)cc3)c2-n2cccc2)C1 (configuration not stated) -37.2%
O=C(CCn1c(=O)c2cccn2c2ccc(F)cc21)NCCc1ccccc1 -18.1%
Cc1ccc(C)c(Nc2cc(C(=O)NC3CCCCC3)c3ccccc3n2)c1 -4.44%
CCC(=O)N1CCc2cc(CNC(=O)C(CC)c3ccccc3)ccc21 (configuration not stated) 1.53%
CCc1cccc(NC(=O)CCc2c(C)nc3c(c2C)c(=O)n(C)c(=O)n3C)c1 -34.5%
Cc1ccc(CNC(=O)CCSCc2ccccc2F)cc1 -14.1%
O=C(NCc1cccnc1)c1nn(-c2ccccc2F)nc1CO -38.9%
CC(=O)N(CC(=O)N(C)C)c1ccccc1 -25.1%
Cc1cc(C)c2oc(C(=O)Nc3sc4c(c3C(=O)NCc3ccco3)CCCC4)cc(=O)c2c1 0.346%
Cc1ccc(N(C(=O)COc2ccccc2C)S(=O)(=O)c2ccc(Cl)cc2)cc1 -17%
Cc1ccc(Nc2c(-c3cc(Br)ccc3F)nc3cc(C)ccn23)cc1 -25.4%
COc1ccccc1NC(=O)Cn1c(=O)n(-c2ccc(C)cc2)c(=O)c2ccc(C(=O)NCc3ccco3)cc21 -22%
CCOc1ccc(NC(=O)N2CCC(CN3CCc4ccccc4C3)CC2)cc1 -5.37%
CCOCCCNC(=O)c1ccc(NC(=O)N2CCCCc3ccccc32)cc1 -12%
COc1ccccc1N1CCN(c2ccc(=O)n(CC(=O)Nc3ccc(F)c(F)c3)n2)CC1 -21.5%
Cc1nc(-c2ccc(Cl)cc2)sc1CCNC(=O)c1ccc(C(F)(F)F)cc1 -7.63%
Cc1ccc(C)c(NC(=O)CCn2nc(C)c3c(C)n(-c4ccccc4)nc3c2=O)c1 -2.71%
Cc1cccc(-c2nn3c(=O)cc(CN4CCN(S(=O)(=O)c5ccc(Cl)cc5)CC4)nc3s2)c1 -23.2%
CCC(C(=O)Nc1ccccc1C(=O)OC)n1nc(C)c2c(C)n(-c3ccc(C)cc3)nc2c1=O (configuration not stated) -25.3%
CCC1CCc2nc3sc(C(=O)Nc4ccc(F)c(Cl)c4)c(N)c3cc2C1 (configuration not stated) -2.82%
Cc1ccccc1Cn1c(=O)n(CCc2ccccc2)c(=O)c2c(C)c(C)sc21 16.8%
COc1cccc(OCCSc2nc3ccccc3n2CC(=O)N2CCCCC2)c1 -20.6%
COc1ccc(-c2nc(CN3CCC(C(=O)NCCCOC(C)C)CC3)c(C)o2)cc1OC -7.92%
COc1cccc(-n2cc(C(=O)NCc3ccccc3OC)c3ccccc3c2=O)c1 -12%
CCC[C@H](Nc1nc(-c2ccc(NC(=O)NCC)c(OC)c2)ncc1C)c1cccnc1 -43.8%
CCc1cc2c(cc3c(=O)n(CC(=O)NCCc4ccc(OC)c(OC)c4)ncn32)s1 -14.4%
COC(=O)c1cc(S(=O)(=O)NCC2CCN(Cc3cccc(F)c3)CC2)c[nH]1 3.75%
O=C(CCn1ccc2cc(S(=O)(=O)N3CCCC3)ccc21)NCc1cccc(F)c1 -19.2%
COC(=O)CSc1nc(-c2ccc(F)cc2)cc(C(F)(F)F)n1 -20.6%
COc1cc(OC)c(C2Nc3ccccc3-c3nnc(SCc4ccccc4)nc3O2)cc1OC (configuration not stated) 27.8%
